# Assay results reported in the supplement of paper PMC12632987.
# Over roughly 1,800 sequences, “median log2 fold change of GCK-ALFA target abundance (FLAG IP / Myc IP barcode read proportion)” has its median near 0.14; the lowest 2% begin near -0.84. Some of the results follow.
# B1: traf2_out_6_156_2396 (protein)
# chain: MLEEILKEAKEKMEELIKEMSKAPEEKKISWINRIAGVVYRALQRAREAGASLEELEAFAKEILEHAKELAEKYGLDEDTKNLLLSSLNAVFDVALEEAK
# B2: traf2_out_3_77_2275 (protein)
# chain: SEEEEKAREELDKATTEAIASLAVLAINRPEKAEKYREMASRLHRAVAIAKEAGAEKEFLPLVKELLEAAKALNEGNEEAEEKIEKLLKEIEAKAKKLEA
# B3: traf2_out_11_155_695 (protein)
# chain: SEQQKLNNELVDKMMEIEDEAKAELAAIAAAAAAEHPEHAAAIAALVAESARFSATTFAGRAAALFRELGLEAYAARVEALREEAQKKKNEVYKEIEAKR
# B4: traf2_out_11_155_682 (protein)
# chain: EKERELNNQLVDETTAIADKLKAEVRAIAARAAAAHPAHAAEIEAVLAASAPFSYRTFAGEAARTFERLGDADAAAEVRALLEKAQKEMNKVVKEIEAKK
# B5: traf2_out_16_104_1405 (protein)
# chain: EEEKKKRFDKIIEELNKIADELGRLANRLYKLMETASPEKKEELSDALVEASEARRKALQAAEEAKKAKETGGDLKEAEKKLKELKEEAKRVKKRAEELF
# B6: traf2_out_6_3_2510 (protein)
# chain: EEEEERKRNEEALEEAAEMSLETIKIAAKSGLKELKKAVEDPNATESDFLAYYSAINTLIEIAEKHAELNPEKKEEAEKFIKEIKKEKEKLKAEWKEKTA
# B7: traf2_out_17_162_1492 (protein)
# chain: SALEAELKALQAELEELRKRLEELKERLKNLENLSKEELTDLLVEASEARRRALELAERLRELREKTGDPELDTLIEEAEALAEELQRIANTIYNEILKK
# B8: traf2_out_11_169_777 (protein)
# chain: EEAEKNRKINDKALELNDKAKEELKKFALELAKEEGLDVEEVKKIFEENKNKSLSAVAAALIEYFESKGKEEAAKKVLEKYEELKEKINKESSAFIKSLQ
# B9: traf2_out_18_167_1845 (protein)
# chain: EEEVRERRRELSDRLVDLSAVRRAALRALQALETDPAAVPAELAALRAEAAKVPELQPLVDAAEAALAAGDRAALRAELERLIAAAGRLMQEAYDELEAL
# B10: traf2_out_13_95_1094 (protein)
# chain: SKEVAEKIMEIADKMLDESLEVLKKLLEEMKKKGKLEEEIKEVLELAENQSINEAIHKLKELAKKYPEVKELLEKAIEELEEIRRKAGKEVAKILKEEKE
# B11: traf2_out_8_174_2563 (protein)
# chain: MEREKLKKAANLGLKYQEKIDEIKEKTEELRKKSLDEALKYTEEKGEELLKEIKEDEEKFKKTEDEELYKLLSRVLNSARTRVENLVEGTKILAEAEKKA
# B12: traf2_out_1_27_990 (protein)
# chain: SDKEITEKIKEASKKMANSSLEEKLEIAKELIREMAKVSKGDAATAAVILASVTKTEEEFEALLKAIKETFKELGWSEEEIEEIERKMRTMWELLKKAYA
# B13: traf2_out_20_38_2004 (protein)
# chain: SEEEEEEKRLEKIIQAANDALDAWEARFAALKAEGKSVEEIAEIAKEEIRRLLTAAGLEEEAEELVAQVDLVLDSPDAERLIARILARAAALVTQKKLQE
# B14: traf2_out_12_187_960 (protein)
# chain: SVADELREAAEAAYRAARAALEKLAPTDPAAQELLARLERAAELMRRHPELASDLLVAASAVLRWVRLVEEGAPAEERAAALAAARAALDEALERGARLE
# B15: traf2_out_20_3_2086 (protein)
# chain: MELEEELEKEIERAIKLLKEAAKLSDEETAKVLEELIKKIKESRELPLEDRLVVLSEVRREVLLLAQKAKEEGKEELAKLLEEAADELNEAMNLIMKLIE
# B16: traf2_out_14_149_1232 (protein)
# chain: SAEQEKLRAAAEINAEIAAALDEVLALLDAGKVEEAKALLRATIAELRARGAAHGITVSGLFVLEEILALLDTDVEAAKAAAAAARARARNAAEAFREMA
# B17: traf2_out_17_162_1519 (protein)
# chain: SPLEEELAALEAELAALEAQLAALEAKLADLDKMSKEELTDLLVEASEARRRARELAERLRRLRPLIGEERAGALIARAEAIADRLNAIANKIYKELEKK
# B18: traf2_out_20_38_2048 (protein)
# chain: SAEEEERRENELIRQAAREADERADERLAARRAAGVSDEEILRETTEEAVRRLEAIGAEDNAERIRLRAAHYREEGTYLKGAEEIIISAEVAIAVQKQLK
# B19: traf2_out_13_95_1037 (protein)
# chain: SKELAKKIMEIADKMLDEVLALLDAAAAAHADDPAAVAVLDEARRAAETRGINEAIHILRQAAAADPEHKADFDALIAEMEAIKREAGREVAKLIKEEKE
# Target: T1, TRAF2, Q12933
# T1 chain: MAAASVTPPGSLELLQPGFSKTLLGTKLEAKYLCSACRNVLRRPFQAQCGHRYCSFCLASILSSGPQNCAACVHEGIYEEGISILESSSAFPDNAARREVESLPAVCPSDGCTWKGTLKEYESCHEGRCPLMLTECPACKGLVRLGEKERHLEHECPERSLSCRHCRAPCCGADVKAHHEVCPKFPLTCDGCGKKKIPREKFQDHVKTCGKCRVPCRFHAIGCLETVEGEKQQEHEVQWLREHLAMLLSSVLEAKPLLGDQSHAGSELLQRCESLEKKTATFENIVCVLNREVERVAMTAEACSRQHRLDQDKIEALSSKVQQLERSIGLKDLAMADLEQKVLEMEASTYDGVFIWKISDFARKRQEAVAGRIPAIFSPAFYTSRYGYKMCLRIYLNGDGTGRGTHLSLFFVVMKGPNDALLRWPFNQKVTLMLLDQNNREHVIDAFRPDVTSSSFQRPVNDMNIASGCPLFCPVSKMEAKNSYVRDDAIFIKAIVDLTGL
# Assay: median log2 fold change of GCK-ALFA target abundance (FLAG IP / Myc IP barcode read proportion) (log2 ratio); each designed protein is fused to an ALFA-tag nanobody in HEK293 cells to bring the named protein to FLAG-tagged glucokinase (GCK); Myc marks an untargeted standard; higher = target protein stabilised (more abundant)
# Conditions: target protein: 3xFLAG-MCP-GCK-ALFA reporter; HEK293 landing pad (RPLP)
# Outline: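 HEK293 landing-pad cells received a recombined binder library fused to the ALFA nanobody and were induced with 2 μg mL^−1 doxycycline, then transfected with a plasmid encoding a FLAG-tagged target and a Myc-tagged standard. Lysates were collected after 48 h for anti-FLAG and anti-Myc immunoprecipitation, and the circular RNA barcodes were reverse transcribed, amplified and sequenced. Target abundance for each binder is the median log2 ratio of FLAG to Myc barcode read proportions. Barcodes had to reach a proportion of at least 10^−7 in both replicates, each binder needed at least 3 barcodes per replicate, a pseudocount of 10^−6 was applied, and the two replicates were pooled.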
row,Binder,median log2 fold change
1,B1,0.066
2,B2,0.323
3,B3,0.427
4,B4,0.368
5,B5,-0.0439
6,B6,0.106
7,B7,0.0611
8,B8,0.293
9,B9,0.179
10,B10,-0.0821
11,B11,0.207
12,B12,-0.169
13,B13,-1.04
14,B14,-0.00248
15,B15,-0.0607
16,B16,0.339
17,B17,-0.109
18,B18,0.215
19,B19,-0.678
